Experimental data reported in the supplement of paper PMC8728848.
The list shows a part of the results.

Key:
Test in all cases: glycan array binding signal (z-score within array); higher = stronger binding
Details in all cases: glycan notation: IUPAC condensed, linker removed
[1] = molecular target: Fuc(a1-2)[GalNAc(a1-3)]Gal(b1-3)GlcNAc(b1-6)GalNAc
How it was run: (§1)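 Arrays were curated from the Consortium for Functional Glycomics database, 3228 in total, and kept only where the protein sequence was available. Binding is expressed as a within-array Z-score. This score was averaged across arrays of the same protein sequence at different concentrations or buffers and across linkers, and negative values can be read as non-binding.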

[2] = molecular target: Fuc(a1-2)[GalNAc(a1-3)]Gal(b1-4)Glc
How it was run: as §1

[3] = molecular target: Fuc(a1-2)[GalNAc(a1-3)]Gal(b1-4)GlcNAc
How it was run: as §1

[4] = molecular target: Fuc(a1-2)[GalNAc(a1-3)]Gal(b1-4)GlcNAc(b1-2)Man
How it was run: as §1

[5] = molecular target: Fuc(a1-2)[GalNAc(a1-3)]Gal(b1-4)GlcNAc(b1-2)Man(a1-3)[Fuc(a1-2)[GalNAc(a1-3)]Gal(b1-4)GlcNAc(b1-2)Man(a1-6)]Man(b1-4)GlcNAc(b1-4)GlcNAc
How it was run: as §1

[6] = molecular target: Fuc(a1-2)[GalNAc(a1-3)]Gal(b1-4)GlcNAc(b1-2)Man(a1-3)[Fuc(a1-2)[GalNAc(a1-3)]Gal(b1-4)GlcNAc(b1-2)Man(a1-6)]Man(b1-4)GlcNAc(b1-4)[Fuc(a1-6)]GlcNAc
How it was run: as §1

[7] = molecular target: Fuc(a1-2)[GalNAc(a1-3)]Gal(b1-4)GlcNAc(b1-3)Gal(b1-4)GlcNAc
How it was run: as §1

[8] = molecular target: Fuc(a1-2)[GalNAc(a1-3)]Gal(b1-4)GlcNAc(b1-3)Gal(b1-4)GlcNAc(b1-3)Gal(b1-4)GlcNAc
How it was run: as §1

[9] = molecular target: Fuc(a1-2)[GalNAc(a1-3)]Gal(b1-4)GlcNAc(b1-3)GalNAc
How it was run: as §1

[10] = molecular target: Fuc(a1-2)[GalNAc(a1-3)]Gal(b1-4)GlcNAc(b1-3)[Fuc(a1-2)[GalNAc(a1-3)]Gal(b1-4)GlcNAc(b1-6)]GalNAc
How it was run: as §1

[11] = molecular target: Fuc(a1-2)[GalNAc(a1-3)]Gal(b1-4)GlcNAc(b1-6)GalNAc
How it was run: as §1

[12] = molecular target: Fuc(a1-2)[GalNAc(a1-3)]Gal(b1-4)[Fuc(a1-3)]GlcNAc
How it was run: as §1

[13] = molecular target: Fuc(a1-2)[GalNAc(a1-3)]Gal(b1-4)[Fuc(a1-3)]GlcNAc(b1-3)GalNAc
How it was run: as §1

[14] = molecular target: Fuc(a1-2)[GalNAc(a1-4)]Gal(b1-4)GlcNAc
How it was run: as §1

[15] = molecular target: Fuc(a1-2)[GalNAc(b1-3)]Gal
How it was run: as §1

[16] = molecular target: Fuc(a1-3)GlcNAc
How it was run: as §1

[17] = molecular target: Fuc(a1-3)[Gal(b1-4)]Glc6S
How it was run: as §1

[18] = molecular target: Fuc(a1-3)[Gal(b1-4)]GlcNAc
How it was run: as §1

[19] = molecular target: Fuc(a1-3)[Gal(b1-4)]GlcNAc(b1-2)Man
How it was run: as §1

[20] = molecular target: Fuc(a1-3)[Gal(b1-4)]GlcNAc(b1-2)Man(a1-3)[Fuc(a1-3)[Gal(b1-4)]GlcNAc(b1-2)Man(a1-6)]Man(b1-4)GlcNAc(b1-4)GlcNAc
How it was run: as §1

[21] = molecular target: Fuc(a1-3)[Gal(b1-4)]GlcNAc(b1-2)Man(a1-3)[Fuc(a1-3)[Gal(b1-4)]GlcNAc(b1-2)Man(a1-6)]Man(b1-4)GlcNAc(b1-4)[Fuc(a1-6)]GlcNAc
How it was run: as §1

[22] = molecular target: Fuc(a1-3)[Gal(b1-4)]GlcNAc(b1-3)Gal(b1-3)[Fuc(a1-4)]GlcNAc
How it was run: as §1

[23] = molecular target: Fuc(a1-3)[Gal(b1-4)]GlcNAc(b1-3)Gal(b1-4)[Fuc(a1-3)]GlcNAc
How it was run: as §1

[24] = molecular target: Fuc(a1-3)[Gal(b1-4)]GlcNAc(b1-3)Gal(b1-4)[Fuc(a1-3)]GlcNAc(b1-3)Gal(b1-4)[Fuc(a1-3)]GlcNAc
How it was run: as §1

[25] = molecular target: Fuc(a1-3)[Gal(b1-4)]GlcNAc(b1-3)GalNAc
How it was run: as §1

[26] = molecular target: Fuc(a1-3)[Gal(b1-4)]GlcNAc(b1-6)GalNAc
How it was run: as §1

[27] = molecular target: Fuc(a1-3)[Gal(b1-4)]GlcNAc(b1-6)[Gal(b1-3)GlcNAc(b1-3)]Gal(b1-4)Glc
How it was run: as §1

[28] = molecular target: Fuc(a1-3)[Gal(b1-4)]GlcNAc6S
How it was run: as §1

[29] = molecular target: Fuc(a1-3)[Gal3S(b1-4)]Glc
How it was run: as §1

[30] = molecular target: Fuc(a1-3)[Gal3S(b1-4)]GlcNAc
How it was run: as §1

[31] = molecular target: Fuc(a1-3)[Gal3S(b1-4)]GlcNAc6S
How it was run: as §1

[32] = molecular target: Fuc(a1-3)[GalNAc(b1-4)]GlcNAc
How it was run: as §1

[33] = molecular target: Fuc(a1-3)[GalNAc(b1-4)]GlcNAc6S
How it was run: as §1

[34] = molecular target: Fuc(a1-4)GlcNAc
How it was run: as §1

[35] = molecular target: Fuc(b1-3)GlcNAc
How it was run: as §1

[36] = molecular target: Gal(a1-2)Gal
How it was run: as §1

[37] = molecular target: Gal(a1-3)Gal
How it was run: as §1

[38] = molecular target: Gal(a1-3)Gal(b1-3)GlcNAc
How it was run: as §1

[39] = molecular target: Gal(a1-3)Gal(b1-3)GlcNAc(b1-2)Man
How it was run: as §1

[40] = molecular target: Gal(a1-3)Gal(b1-3)GlcNAc(b1-2)Man(a1-3)[Gal(a1-3)Gal(b1-3)GlcNAc(b1-2)Man(a1-6)]Man(b1-4)GlcNAc(b1-4)GlcNAc
How it was run: as §1

[41] = molecular target: Gal(a1-3)Gal(b1-3)GlcNAc(b1-3)GalNAc
How it was run: as §1

[42] = molecular target: Gal(a1-3)Gal(b1-3)GlcNAc(b1-6)GalNAc
How it was run: as §1

[43] = molecular target: Gal(a1-3)Gal(b1-3)[Fuc(a1-4)]GlcNAc(b1-2)Man(a1-3)[Gal(a1-3)Gal(b1-3)[Fuc(a1-4)]GlcNAc(b1-2)Man(a1-6)]Man(b1-4)GlcNAc(b1-4)GlcNAc
How it was run: as §1

[44] = molecular target: Gal(a1-3)Gal(b1-4)Glc
How it was run: as §1

[45] = molecular target: Gal(a1-3)Gal(b1-4)GlcNAc
How it was run: as §1

B1: SAOUHSC 00176 (Staphylococcus aureus) (protein)
chain: MSKILKCITLAVVMLLIVTACGPNRSKEDIDKALNKDNSKDKPNQLTMWVDGDKQMAFYKKITDQYTKKTGIKVKLVNIGQNDQLENISLDAPAGKGPDIFFLAHDNTGSAYLQGLAAEIKLSKDELKGFNKQALKAMNYDNKQLALPAIVETTALFYNKKLVKNAPQTLEEVEANAAKLTDSKKKQYGMLFDAKNFYFNYPFLFGNDDYIFKKNGSEYDIHQLGLNSKHVVKNAERLQKWYDKGYLPKAATHDVMIGLFKEGKVGQFVTGPWNINEYQETFGKDLGVTTLPTDGGKPMKPFLGVRGWYLSEYSKHKYWAKDLMLYITSKDTLQKYTDEMSEITGRVDVKSSNPNLKVFEKQARHAEPMPNIPEMRQVWEPMGNASIFISNGKNPKQALDEATNDITQNIKILHPSQNDKKGD
Q: B1 was tested. Which “glycan array binding signal (z-score)” value [1] did it give?
A: The value was -0.227.

Q: What about the “glycan array binding signal (z-score)” value [2] of the same binder?
A: The value was -0.145.

Q: What about the “glycan array binding signal (z-score)” value [3] of the same binder?
A: The value was -0.132.

Q: What about the “glycan array binding signal (z-score)” value [4] of the same binder?
A: The value was -0.143.

Q: And the “glycan array binding signal (z-score)” value [5]?
A: The value was -0.026.

Q: And the “glycan array binding signal (z-score)” value [6]?
A: Its value is 0.225.

Q: What about the “glycan array binding signal (z-score)” value [7] of the same binder?
A: The value was -0.18.

Q: What about the “glycan array binding signal (z-score)” value [8] of the same binder?
A: Its value is -0.095.

Q: What about the “glycan array binding signal (z-score)” value [9] of the same binder?
A: Its value is -0.093.

Q: And the “glycan array binding signal (z-score)” value [10]?
A: Its value is -0.092.

Q: And the “glycan array binding signal (z-score)” value [11]?
A: Its value is -0.2.

Q: And the “glycan array binding signal (z-score)” value [12]?
A: The value was -0.149.

Q: And the “glycan array binding signal (z-score)” value [13]?
A: The value was 0.044.

Q: And the “glycan array binding signal (z-score)” value [14]?
A: Its value is -0.067.

Q: What about the “glycan array binding signal (z-score)” value [15] of the same binder?
A: The value was -0.062.

Q: What about the “glycan array binding signal (z-score)” value [16] of the same binder?
A: The value was -0.015.

Q: And the “glycan array binding signal (z-score)” value [17]?
A: Its value is 0.055.

Q: And the “glycan array binding signal (z-score)” value [18]?
A: Its value is -0.127.

Q: What about the “glycan array binding signal (z-score)” value [19] of the same binder?
A: The value was -0.094.

Q: What about the “glycan array binding signal (z-score)” value [20] of the same binder?
A: The value was -0.15.

Q: What about the “glycan array binding signal (z-score)” value [21] of the same binder?
A: The value was -0.009.

Q: And the “glycan array binding signal (z-score)” value [22]?
A: Its value is -0.06.

Q: And the “glycan array binding signal (z-score)” value [23]?
A: Its value is -0.068.

Q: And the “glycan array binding signal (z-score)” value [24]?
A: Its value is -0.111.

Q: And the “glycan array binding signal (z-score)” value [25]?
A: The value was -0.154.

Q: What about the “glycan array binding signal (z-score)” value [26] of the same binder?
A: Its value is -0.13.

Q: What about the “glycan array binding signal (z-score)” value [27] of the same binder?
A: The value was -0.172.

Q: What about the “glycan array binding signal (z-score)” value [28] of the same binder?
A: Its value is 0.019.

Q: What about the “glycan array binding signal (z-score)” value [29] of the same binder?
A: Its value is -0.08.

Q: What about the “glycan array binding signal (z-score)” value [30] of the same binder?
A: Its value is -0.097.

Q: And the “glycan array binding signal (z-score)” value [31]?
A: The value was -0.175.

Q: What about the “glycan array binding signal (z-score)” value [32] of the same binder?
A: The value was -0.119.

Q: What about the “glycan array binding signal (z-score)” value [33] of the same binder?
A: The value was -0.072.

Q: What about the “glycan array binding signal (z-score)” value [34] of the same binder?
A: Its value is 0.037.

Q: And the “glycan array binding signal (z-score)” value [35]?
A: Its value is -0.001.

Q: And the “glycan array binding signal (z-score)” value [36]?
A: Its value is -0.022.

Q: What about the “glycan array binding signal (z-score)” value [37] of the same binder?
A: The value was -0.146.

Q: And the “glycan array binding signal (z-score)” value [38]?
A: Its value is -0.106.

Q: What about the “glycan array binding signal (z-score)” value [39] of the same binder?
A: Its value is -0.146.

Q: What about the “glycan array binding signal (z-score)” value [40] of the same binder?
A: Its value is 0.584.

Q: And the “glycan array binding signal (z-score)” value [41]?
A: The value was -0.107.

Q: What about the “glycan array binding signal (z-score)” value [42] of the same binder?
A: The value was -0.038.

Q: What about the “glycan array binding signal (z-score)” value [43] of the same binder?
A: Its value is 0.078.

Q: What about the “glycan array binding signal (z-score)” value [44] of the same binder?
A: Its value is -0.01.

Q: What about the “glycan array binding signal (z-score)” value [45] of the same binder?
A: The value was -0.063.
